Data from PubChem BioAssay AID686978 (National Center for Advancing Translational Sciences (NCATS), 2013).
The whole screen tested about 420,000 compounds, of which about 64,000 (15%) were called active. This list was built around the results that the source calls inconclusive (neither active nor inactive); the mix of calls is not that of the screen. Calls follow the shape of the dose curve; as a rule, active = well fitted inhibition curve with a large enough effect; inconclusive = small, poorly fitted or top-dose-only effect; inactive = flat fitted curve, though single readings scatter. Potencies of inconclusive entries are left out as doubtful fits.

Assay: qHTS for Inhibitors of human tyrosyl-DNA phosphodiesterase 1 (TDP1): qHTS in cells in absence of CPT; also: nearly all actives have a fitted effect of over 55% in size
Details: DT40 Tdp1-/- hTDP1 cells, no CPT, ATP luminescence, 48 h; activity change, negative = growth inhibition: at 46.2 µM (top of the series) unless noted
In short: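 Seeded 400 DT40-hTDP1 cells/well (vehicle DMSO, no 20 nM CPT); pinned compounds; ≥48 hr at 37 °C; CellTiter-Glo luminescence as viability measure.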
% is scaled to controls: 0 for no effect and ±100 for the full control effect; potency is read from the fitted curve at half-maximal effect; tags tell the direction and shape of the fitted curve.

| SMILES | Potency | activity change, negative = growth inhibition |
| --- | --- | --- |
| COc1ccc(NC(=O)CSc2nc(N)c(NC(=O)c3cccs3)c(=O)[nH]2)cc1 | inactive | – |
| COc1cccc(Oc2nc(-c3ccccc3O)nc3ccccc23)c1 | inactive | – |
| COc1ccc(Cl)cc1NC(=O)CN(C(=O)c1ccco1)C1CCCCC1 | inconclusive [inhibitor, single point] | – |
| CS(=O)(=O)N1CCCCC1c1cc(C(=O)Nc2ccc3c(c2)OCO3)no1 (configuration not stated) | inactive | – |
| O=C(O)[C@H](Cc1ccccc1)NC(=O)N1CCOCC1 | inactive | – |
| Cc1c(Cl)c([N+](=O)[O-])nn1Cc1ccc(C(=O)N/N=C\c2cccc(Br)c2)o1 | inconclusive [inhibitor, single point] | – |
| CCOC(=O)c1sc(=S)n(CC)c1NC(=O)CC | inactive | – |
| CCCSCCCNC(=O)C1CCN(c2nn3cc(-c4ccc(F)cc4)nc3s2)CC1 | inconclusive [inhibitor, full curve] | – |
| CCN1C(=O)N[C@@H](c2ccco2)C(C(=O)OC)=C1C | inactive | – |
| Cc1ccc2nc(-c3ccc(O)cc3)c(Nc3ccc4c(c3)OCCO4)n2c1 | inconclusive [inhibitor, single point] | – |
| COc1ccc(-c2cnc3c(NC=O)cc(-c4ccc(C(=O)N5CCOCC5)cc4)cn23)cc1OC | active: 3.26 µM | – |
| Cc1c(C(=O)N2c3ccccc3Sc3ccccc32)cccc1[N+](=O)[O-] | active: 25.9 µM | – |
| COc1ccccc1N1CCN(C(c2ccccc2Cl)c2nnnn2C(C)(C)C)CC1 (configuration not stated) | inconclusive [inhibitor, single point] | – |
| CN(c1ccccc1)S(=O)(=O)c1cccc(NC(=O)CN2C(=O)NC3(CCCCC3)C2=O)c1 | inactive | – |
| CC(Cc1cccs1)NC(=O)NC1CCCCC1 (configuration not stated) | inactive | – |
| CN1C(c2ccc(F)cc2)=CS/C1=C(/C#N)c1nnc(N2CCOCC2)n1-c1ccccc1 | inactive | – |
| Cc1nn(C(C)C(=O)NCCCN(Cc2ccccc2)C(C)C)c(=O)c2c1sc1ccccc12 (configuration not stated) | inconclusive [inhibitor, single point] | – |
| CCOC(=O)CCc1c(C)nc(SCC(=O)O)c(C#N)c1C | inactive | – |
| COC(=O)c1ccccc1NC(=O)Cn1c(=O)n(Cc2ccc(C(=O)NCc3ccc4c(c3)OCO4)cc2)c(=O)c2ccccc21 | inactive | – |
| O=C1C2C(C(=O)N1/N=C/c1cc(Br)cc([N+](=O)[O-])c1O)C1C=CC2C12CC2 (configuration not stated) | active: 16.4 µM | – |
| CCOc1ccccc1Nc1cc2n(c(=O)n1)CCc1cc(OC)c(OC)cc1-2 | active: 14.6 µM | – |
| CCC1CCCCN1CCCNC(=O)c1cc2c(Cl)nc3ccccc3c2s1 (configuration not stated) | inconclusive [inhibitor, single point] | – |
| CCC1=NN(C(=O)Cc2ccc([N+](=O)[O-])cc2)C(O)(C(F)(F)F)C1 (configuration not stated) | inconclusive [inhibitor, single point] | – |
| COc1ccc(NC(=O)c2cc(F)cc(F)c2)cc1S(=O)(=O)N1CCCCC1 | inconclusive [inhibitor, single point] | – |

| SMILES | Potency | activity change, negative = growth inhibition |
| --- | --- | --- |
| O=C1COc2ccccc2C(c2nc3ccccc3[nH]2)N1C1CC1 (configuration not stated) | inactive | – |
| N#CC1(C#N)OC12CCS(=O)(=O)c1ccccc12 (configuration not stated) | inconclusive [inhibitor, single point] | – |
| Cc1ccc(C)n1-c1nnc(N2CCCC(C(=O)Nc3ccc(C(C)C)cc3)C2)s1 (configuration not stated) | active: 13 µM | – |
| COC(=O)c1c(NC(=O)c2ccc(S(=O)(=O)N3CCOCC3)cc2)sc2c1CCN(C(C)C)C2 | inconclusive [inhibitor, single point] | – |
| Clc1ccccc1CNCc1ccc2c(c1)OCO2 | inconclusive [inhibitor, single point] | – |
| CS(=O)(=O)Nc1ccccc1Oc1ccccc1 | – | inconclusive: -32.9% [inhibitor] |
| O=C(NCCCO)c1cc2c([nH]c3ccccc32)c(-c2ccc(F)cc2)n1 | inconclusive [inhibitor, full curve, poor fit] | – |
| Cc1ccc(C)c(N2C(=O)N(Cc3cc(=O)n4ccccc4n3)c3ccccc3S2(=O)=O)c1 | inconclusive [inhibitor, single point] | – |
| CCOC(=O)C[C@H]1c2cc(F)ccc2S(=O)(=O)N1c1cccc(OC)c1 | inconclusive [inhibitor, single point] | – |
| Cn1c(O)c(N=NC(=O)CNC(=O)c2ccccc2)c2ccccc21 | inactive | – |
| COc1ccc2cc(N3CCCC3=O)ccc2c1 | inconclusive [inhibitor, single point] | – |
| Cc1c(C(=O)NCc2cccc(Cl)c2)sc(=O)n1Cc1cccc(F)c1 | inconclusive [inhibitor, single point] | – |
| C=CCNC(=S)NNc1ncnc2sc3c(c12)CC(C)(C)OC3 | active: 5.17 µM | – |
| COc1ccc(-n2nnnc2SCC(=O)c2ccc(O)c(O)c2)cc1 | inconclusive [inhibitor, single point] | – |
| COc1ccc(C(=O)NCc2nnc(SCC(=O)N3CCCCCC3)o2)cc1OC | inactive | – |
| COCCC(=O)N1CCC(Oc2ccc(C(=O)N(C)Cc3cc(C)no3)cc2)CC1 | inactive | – |
| Cc1ccc(CNC(=O)c2ccc3c(c2)nc(C)n3-c2cc(C)cc(C)c2)cc1 | inconclusive [inhibitor, single point] | – |
| CCc1cccc(NC(=O)Nc2csc3c2CCCC3)c1 | active: 23.1 µM | – |
| COc1ccc(NC(=O)C2CCN(c3nc(-c4ccc(OC)cc4)no3)CC2)cc1 | inconclusive [inhibitor, single point] | – |
| CCc1cccc(NC(=O)CC2Oc3ccccc3NC2=O)c1 (configuration not stated) | inconclusive [inhibitor, single point] | – |
| CCOC(=O)C1=CC[C@@H](c2ccccc2)N(S(=O)(=O)c2ccc(C)cc2)[C@H]1C=C(C)C | active: 11.6 µM | – |
| COc1cccc(NC(=O)CSC2=NN3CCCC(=O)N=C3S2)c1 | inconclusive [inhibitor, single point] | – |
| O=C(CN1C(=O)CCc2cc(S(=O)(=O)N3CCOCC3)ccc21)NCc1ccc(F)cc1 | inactive | – |
| Cc1ccccc1C(=O)N1CCC(C(=O)N2CCN(Cc3ccc4c(c3)OCO4)CC2)CC1 | inconclusive [inhibitor, single point] | – |

| SMILES | Potency | activity change, negative = growth inhibition |
| --- | --- | --- |
| N#Cc1ccccc1NC(=O)Cn1cnc2onc(-c3cccc(F)c3)c2c1=O | inactive | – |
| CC(C)(C)c1ccc(C(=O)N/N=C2\C3CN4CCN(C3)CC2(c2ccccc2)C4)cc1 | inconclusive [inhibitor, partial curve] | – |
| CCOC(=O)CCc1c(C)c2ccc(OC3CCCCC3=O)c(C)c2oc1=O (configuration not stated) | inconclusive [inhibitor, partial curve] | – |
| COc1cc(C)ccc1OCCSc1nc2ccc(NC(=O)c3ccc(F)cc3)cc2s1 | active: 8.2 µM | – |
| CSc1ncccc1C(=O)NCc1ccc(C)cc1 | inactive | – |
| O=C(CSc1ccccc1)Nc1nnc(COc2ccc(Cl)cc2)s1 | active: 25.9 µM | – |
| CCOc1ccc(C2c3c(oc4ccccc4c3=O)C(=O)N2CCCN2CCOCC2)cc1OCC (configuration not stated) | inconclusive [inhibitor, single point] | – |
| CCc1cc(CNC(=O)C2CCC(=O)N(Cc3ccc(Cl)cc3)C2)on1 (configuration not stated) | inactive | – |
| O=C(OCC(=O)C12CC3CC(CC(C3)C1)C2)c1ccc(O)cc1O | inconclusive [inhibitor, single point] | – |
| COCC(=O)Nc1nc(-c2ccc([N+](=O)[O-])cc2)cs1 | inconclusive [inhibitor, partial curve] | – |
| Cc1ccc(N(CC(=O)NCCc2ccccc2)S(=O)(=O)N(C)C)cc1 | inconclusive [inhibitor, single point] | – |
| CC1(C)C=Cc2c(ccc(C(=O)/C=C/c3ccccc3)c2O)O1 | active: 8.91 µM | – |
| CCCCC(=O)/C=C/n1c(=S)oc2ccccc21 | active: 4.11 µM | – |
| CCOC(=O)N1CCN(C(=O)C[C@@H]2C[C@@]3(C(=O)OC)CCCCC=C3N(Cc3cccc4ccccc34)C2=O)CC1 | active: 20.6 µM | – |
| Clc1cccc(Nc2nc(N3CCOCC3)nc(N3CCOCC3)n2)c1 | inconclusive [inhibitor, partial curve] | – |
| CCCCn1c(CN2CCN(C(=O)c3ccco3)CC2)nc2c1c(=O)n(C)c(=O)n2C | inconclusive [inhibitor, single point] | – |
| CCOc1c(Cl)cc(/C=C/C(=O)N(CC)CC(=O)NCc2cccs2)cc1OC | inconclusive [inhibitor, single point] | – |
| COc1ccc(NC(=O)N(C)C[C@@H]2OCc3cnnn3CCCC(=O)N([C@H](C)CO)C[C@@H]2C)cc1 | inactive | – |
| O=C(NCc1cccs1)C1CCCN(C(=O)Nc2ccccc2)C1 (configuration not stated) | inactive | – |
| CCOC(=O)NC(=O)c1cn(Nc2ccccc2)c(=O)[nH]c1=O | inactive | – |
| NC(=O)c1ccc(NC(=O)COC(=O)CC(NC(=O)c2ccccc2Cl)c2ccccc2)cc1 (configuration not stated) | inconclusive [inhibitor, single point] | – |
| CC(C)NC(=O)C1C(c2ccc(C(F)(F)F)cc2)=Nc2ccccc2N1C(=O)c1cccc2ccccc12 (configuration not stated) | inconclusive [inhibitor, single point] | – |
| COCCCn1c(=N)c(C(=O)NCc2ccc3c(c2)OCO3)cc2c(=O)n3ccccc3nc21 | inconclusive [inhibitor, single point] | – |
| CN(C(=O)COC(=O)c1cc(=O)[nH]c2ccccc12)c1ccccc1 | inconclusive [inhibitor, single point] | – |
